Measured values published in publication PMC6371224.
These are yes or no findings as the source states them, for the method shown. For part of these data: In cells and extracts the contact can be indirect. Some binding calls cover weakened binding; strength is not graded here. For part of these data: Where a sequence is shown, tags or fusion partners need not be part of it.

Amino acid sequences for entries named in this document (tags omitted). Residues count along the entry.
UniProt P70581, residues 239-415: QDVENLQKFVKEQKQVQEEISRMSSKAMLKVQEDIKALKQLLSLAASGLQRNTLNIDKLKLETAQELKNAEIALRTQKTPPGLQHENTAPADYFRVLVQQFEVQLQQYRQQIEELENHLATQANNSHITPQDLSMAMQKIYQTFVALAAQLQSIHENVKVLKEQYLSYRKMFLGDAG

B1: Rattus norvegicus Nup62 (322-525) (domain or fragment, UniProt P17955 322-525)
chain: AVGTTTGPAMTYAQLESLINKWSLELEDQERHFLQQATQVNAWDRTLIENGEKITSLHREVEKVKLDQKRLDQELDFILSQQKELEDLLSPLEESVKEQSGTIYLQHADEEREKTYKLAENIDAQLKRMAQDLKDIIEHLNMAGGPADTSDPLQQICKILNAHMDSLQWVDQSSALLQRRVEEASRVCESRRKEQERSLRIAFD
B2: Rattus norvegicus Nup54 (332-510) (domain or fragment, UniProt P70582 332-510)
chain: GFKELLRRLKVQDQMTKQHQTRLDIISEDISELQKNQTTTMAKIAQYKRKLMDLSHRTLQVLIKQEIQRKSGYAIQAEEEQLRVQLDTIQGELNAPTQFKGRLNELMSQIRMQNHFGAVKSEEKYYIDADLLREIKQHLKQQQEGLSHLISIIKDDLEDIKLVEHGLNETIHSRGGVFS

Tests used:
[1] = biological target: His6-tagged Rattus norvegicus Nup58 (239-415) (Rattus norvegicus) (UniProt P70581); test: pull-down; Ni-NTA agarose pull-down through His6-tagged Nup58 or ctNup49, co-expressed with rNup62 and rNup54 from one polycistronic plasmid in E. coli; identical conditions for both constructs
[2] = biological target: T1, Chaetomium thermophilum Nup49 (246-470), His6 tag cleaved (Chaetomium thermophilum) (UniProt G0S4X2); test: SEC; Superdex 200 10/300 GL on the Ni-NTA eluate after thrombin cleavage of the His6 tag; Tris-HCl pH 8, 250 mM NaCl, 0.5 mM EDTA, 1 mM DTT, 4°C; peak fractions on 12% SDS-PAGE; both purified
T1 sequence: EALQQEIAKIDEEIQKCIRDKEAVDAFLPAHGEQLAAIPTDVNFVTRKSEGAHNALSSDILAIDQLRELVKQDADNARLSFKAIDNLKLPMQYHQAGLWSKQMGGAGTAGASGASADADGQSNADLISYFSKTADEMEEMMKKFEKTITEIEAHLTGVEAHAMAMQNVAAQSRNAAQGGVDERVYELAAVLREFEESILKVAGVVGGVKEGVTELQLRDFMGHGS

[3] = biological target: Rattus norvegicus Nup58 (239-415), His6 tag cleaved (Rattus norvegicus) (UniProt P70581); test: as above

Binder	binding [1]	binding [2]	binding [3]
B1	binds	no binding	binds
B2	binds	no binding	binds
